Experimental data: the supplement of paper PMC10126150
Values marked as one replicate rest on one cluster of the flow cell; about a third of the high ones do not repeat.

Tested on: ATP
Experiment: switch fluorescence ratio, 500 uM ATP over buffer (Cy3 cluster intensity, sum of 5 cycles each) (fold (ratio)); higher = stronger signal-on switching upon ATP binding; sequences stand for … in TCGTCGGCAGCGTCAGATGTGTATAAGAGACAGTTTTTTTTTTTTTTTTTTTTTTTTT…TC
Details: aptamer strand: ATP DNA aptamer (quencher-CACCTGGGGGAGTATTGCGGAGGAAGG + anchor), 100 nM annealed; ATP concentration: 500 uM; one replicate
Method in brief: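 Per cluster, summed Cy3 intensity from the target cycles was divided by that from the buffer cycles to give the fluorescence ratio, then averaged per switch-domain sequence. Clusters outside 100-1000 RFU were excluded. The Cy3-labelled switching-strand clusters, on a modified Illumina MiSeq flow-cell, were annealed to 100 nM quencher-labelled ATP aptamer and imaged in selection buffer, then after 15 min with 500 uM ATP at 22 °C, for five cycles with NaOH stripping and re-annealing between them.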
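Further: ATP exposure 15 min at 22 °C before imaging.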

Row | Sequence | switch fluorescence ratio
1 | AATTTCAGTA | 1
2 | CGGTTCAACA | 0.994
3 | TATAGGACTT | 1.06
4 | GGCTTGAAGT | 1
5 | GAATGAAACT | 1.04
6 | TGCTCTGTTG | 0.981
7 | GAAGTTGAGC | 1.03
8 | CCCTAGGCGG | 1.12
9 | TCGCGTTATC | 1.11
10 | TCCAGGTTTT | 1.12
11 | GGGCTAACCG | 1
12 | TTTTGCAGCA | 1
13 | CGCGCCTGGA | 1.03
14 | ACCGATCTTT | 1.01
15 | TCGAATAATA | 1.02
16 | CGTTATGTAG | 1.03
17 | TCTGCCACTC | 1.17
18 | CGAATAGGCA | 1.01
19 | TGGGGGCAAC | 0.985
20 | TCTTAGCGTT | 0.958
21 | ATGACCAAAT | 1.02
22 | TTCCTGACAT | 1.01
23 | GTGGGGGTCA | 1.02
24 | GAGGCGCTGG | 0.996
25 | TGTAAAGCAG | 1.01
26 | CGATACACAT | 1.04

Row | Sequence | switch fluorescence ratio
27 | AGGTCGA | 1.02
28 | CTCCGTCCAG | 2.54
29 | TTCAGGGATA | 0.992
30 | GAAAAGATCT | 1.01
31 | ACACTTGTCG | 1.07
32 | GGTAGTGTG | 0.973
33 | TAGACCGAAC | 1.5
34 | GGCAACAACT | 1.04
35 | CAGCGTGATT | 0.988
36 | TCGCGAATTT | 0.98
37 | TACTCATCC | 1.03
38 | GCCAAAGTGC | 0.997
39 | GGTATATTGT | 1.01
40 | CGCTCGGGCG | 1.02
41 | CGTTCAGGGT | 0.993
42 | TTTATATCCG | 0.971
43 | TAGGATACAG | 1.01
44 | ATCTAGTTGT | 0.991
45 | TGGAGGCAGG | 1.1
46 | CCTTGTTCGA | 0.988
47 | CTTTTTTGAG | 0.975
48 | TTCTGCGGTT | 1.02
49 | TACGTCCATG | 1
50 | CTGGGGGAGG | 1.06
51 | GTAAAGGCTA | 0.999
52 | GACGTGGTGC | 1.2

Row | Sequence | switch fluorescence ratio
53 | GGCAAAGTTG | 0.978
54 | ATTCCTACTG | 1.06
55 | CAGTCGGGAC | 0.993
56 | GATTGCAAGT | 1.03
57 | GTTTCTTTCT | 0.955
58 | TCCAACGTGG | 1.11
59 | ACGTAAGACG | 1.12
60 | GGATAATCGG | 0.966
61 | TCGGGCTGAT | 0.987
62 | TGGCGGTATT | 1.01
63 | CGGTTCCTAG | 0.969
64 | TTGCCAGCCG | 1.07
65 | AGAATAAGCG | 0.964
66 | TATGACTTCC | 2.59
67 | CACAGGGGA | 1.37
68 | AGGTATCCGT | 1.04
69 | GGAAATGATT | 1.01
70 | CGCTGCTGAA | 1.05
71 | CGTCGTCCAG | 1.01
72 | GTAGCGCTTG | 1.02
73 | CAGTCCGTC | 1.05
74 | CATATCTTCA | 1.13
75 | TGTTGGTTAT | 1.01
76 | CGCTATAT | 1.57
77 | CTGCGTCGGG | 1.03
78 | ACCCACTGTA | 1.46

Row | Sequence | switch fluorescence ratio
79 | AGCACGAACG | 1.19
80 | TTGGCTTGGC | 1.02
81 | ATTGCCAGAG | 1.04
82 | AAGTCTTTTT | 0.935
83 | CGAGTAGGAC | 1.06
84 | TATCAGGGTT | 0.985
85 | GCATGGCTCA | 1.02
86 | CGACTGACGA | 1.35
87 | CGGGGCGATA | 1.08
88 | GGGCCTTATG | 1
89 | ACCACGGATT | 1.11
90 | TCTCATATG | 1.04
91 | TCACCCATAA | 1.01
92 | TGGTACTATT | 1.01
93 | TATGCGGGAA | 0.885
94 | AGTAAAAACC | 0.984
95 | CGAGGGTAA | 1.05
96 | TTTAACACAT | 0.981
97 | AGCGCATTGA | 1
98 | TGAATCTGAT | 0.989
99 | TTTCGTCGGG | 1.06
100 | GCTCATGGGT | 1.01
101 | GCTCTGAAGG | 1.04
102 | TTTGACTCAT | 1.01
103 | TTAGATCGTC | 0.971
104 | TGAACAGACG | 1.05

Row | Sequence | switch fluorescence ratio
105 | AGAGCAGGCT | 0.891
106 | GGTGCCCGTT | 1.05
107 | GAAAAAAGCC | 1.01
108 | TACCGTTTCG | 1.01
109 | ACATATAGTC | 1.06
110 | GATTATAGG | 0.981
111 | AAATCATGG | 1
112 | TTATCCCAAG | 1.04
113 | CCGCGGGAAA | 1.02
114 | GGATCCAGAA | 0.943
115 | GCATTACTAA | 1.27
116 | CGGTGTAGTA | 1.05
117 | CAGGAATACA | 1.46
118 | GCGCTCGGGA | 1.01
119 | ATTCCGACTA | 1.66
120 | GATCTAAGTT | 0.974
121 | CAGTAGATTC | 1.01
122 | AGTCAGGTGT | 2.49
123 | AAACAGCCCG | 1.03
124 | TCACCAAAAT | 1.05
125 | TGGGATCTTA | 1.01
126 | TGACTCGGGG | 0.969
127 | CTGGCAGCTG | 0.978
128 | CCCAACCTAC | 1.49
129 | CGAAGCGGCC | 4.04
130 | TTACTGGGCG | 0.964

Row | Sequence | switch fluorescence ratio
131 | GACCGGGTC | 0.997
132 | GCCTGATGAG | 0.998
133 | GCGAGGTCAT | 0.992
134 | CATACTTCTC | 1.02
135 | CTGTCATTCG | 1.03
136 | CAAATTACAT | 1.02
137 | ATTTATAGTG | 1.01
138 | CTTAGCCATT | 1.02
139 | AACCAGGAAC | 1.03
140 | AGGGAGTGAA | 0.988
141 | TTCTTAGCGA | 1.11
142 | AAATCATGCA | 1.04
143 | CGACCCACTC | 1.49
144 | TTCATCGACG | 1.01
145 | CGTCAGGCA | 1.03
146 | CAACACACA | 1.27
147 | TATTTCCTGA | 1.05
148 | GGAATGTATG | 1.04
149 | ATCATCGTCT | 0.99
150 | AAGTGCCAG | 1
151 | ATTGTCCCTT | 1.05
152 | CGTTTACTGG | 0.978
153 | GTGGAACTAC | 1.04
154 | ACCTTTAAG | 1.01
155 | TGGAAACGCC | 1.03
156 | TTCCCTAGAG | 0.988

Row | Sequence | switch fluorescence ratio
157 | CGTAATTAAA | 1
158 | ATTAGTCGTT | 0.992
159 | TCCATTTTGA | 1.03
160 | ACCGGCTGTG | 1.02
161 | AGGTTGTAG | 1.01
162 | TGGACCCCAT | 1.02
163 | CCCGGTAAA | 1
164 | AGCGCATTAC | 3.99
165 | AGGCCTTCTT | 0.95
166 | ACAATCCGAG | 1.09
167 | GGGACTCTG | 0.998
168 | ACGAAGGAGT | 0.991
169 | ACCAAGATTC | 1.11
170 | GAGGGCTCGA | 1.03
171 | CGTTGGTTTC | 0.966
172 | CAGTGAGAA | 1.04
173 | AGATTCTGG | 0.961
174 | ACCCGGTTTG | 1.01
175 | TTAAGCCCGC | 1.06
176 | AACGATGTGG | 1
177 | CAGATAGTTG | 0.989
178 | AGGGCCGTG | 1.03
179 | GCTTGAAATA | 1.05
180 | CGCAGGTCAA | 1.19
181 | CAGGCGATCG | 1.05
182 | AGCCTGAC | 2.25

Row | Sequence | switch fluorescence ratio
183 | AAATTCCAGG | 1.25
184 | GCATAAACCA | 1.03
185 | TAGTCGGAGG | 1.06
186 | GCGAAGGGTT | 0.976
187 | TAGTGCGTTT | 0.996
188 | TGAGTTGGAT | 1
189 | TGGGGACACG | 0.965
190 | CAGAAGTGGC | 1.01
191 | CAGGCGCTAA | 1.25
192 | ACTCAAGTT | 1.08
193 | TGCTTACGC | 1.06
194 | AATTTTGTGC | 1.03
195 | GGTCAAACGT | 0.993
196 | TAAGGTTTT | 1.03
197 | GCAGGTAGGT | 1.01
198 | ACCTGGCGA | 1.05
199 | GCATGCTCTG | 0.976
200 | GAGCATTAGG | 1.03
201 | TAGAAAGGAA | 1.01
